Experimental data reported in PMC11995724, “Antibiotic target discovery by integrated phenotypic and activity-based profiling of electrophilic fragments” (Cell chemical biology, 2025).
Out of some 3,200 compounds screened, about 75 (2%) showed an effect of 50% or more. This is one part of the list.

system: T1, S. aureus MSSA476; set-up: species or system S. aureus MSSA476 (TSB) or V. cholerae SAD30 (LB); 384-well bacterial growth screen at 25 uM, OD600 relative to DMSO control; conditions: relative growth, OD600, TSB; 25 µM; inhibitor
T1 construct: MSSA476

| Structure (SMILES) | % of control remaining [%] |
| --- | --- |
| C=CC(=O)N1CCC(C(=O)NC(C)CC2CC2)CC1 (stereo not shown) [3-M05, N-(1-cyclopropylpropan-2-yl)-1-(prop-2-enoyl)piperidine-4-carboxamide] | 90.5529 |
| N#CC(=Cc1ccc(-c2ccccc2)cc1)C(=O)N1CCCC1 [9-B08, 3-{[1,1'-biphenyl]-4-yl}-2-(pyrrolidine-1-carbonyl)prop-2-enenitrile] | 103.071 |
| N#CC(=Cc1cc(F)ccc1F)C(=O)Nc1ccc(Cl)cc1Cl [8-O08, 2-cyano-N-(2,4-dichlorophenyl)-3-(2,5-difluorophenyl)prop-2-enamide] | 92.9461 |
| C=CC(=O)NCc1nonc1C [2-H07, N-[(4-methyl-1,2,5-oxadiazol-3-yl)methyl]prop-2-enamide] | 108.268 |
| CC(Cl)C(=O)NCc1cnc(N2CCOCC2)s1 (stereo not shown) [6-P05, 2-chloro-N-{[2-(morpholin-4-yl)-1,3-thiazol-5-yl]methyl}propanamide] | 78.1951 |
| C=CC(=O)NCCC(=O)Nc1c(C)c(C)nn1C [2-G12, N-{2-[(1,3,4-trimethyl-1H-pyrazol-5-yl)carbamoyl]ethyl}prop-2-enamide] | 103.394 |
| CC(Cl)C(=O)NC(C)C(=O)Nc1ccc(-n2cncn2)cc1 (stereo not shown) [7-P07, 2-chloro-N-(1-{[4-(1H-1,2,4-triazol-1-yl)phenyl]carbamoyl}ethyl)propanamide] | 75.6672 |
| Cc1ccc(NC(=O)C(C#N)=Cc2cccc([N+](=O)[O-])c2)cc1 [8-J17, 2-cyano-N-(4-methylphenyl)-3-(3-nitrophenyl)prop-2-enamide] | 95.9336 |
| C=CCNC(=O)C(C#N)=Cc1cccc(O)c1 [9-B09, 2-cyano-3-(3-hydroxyphenyl)-N-(prop-2-en-1-yl)prop-2-enamide] | 103.67 |
| Cc1cc(-n2c(C)cc(C(=O)CCl)c2C)no1 [10-C18, 2-chloro-1-[2,5-dimethyl-1-(5-methyl-1,2-oxazol-3-yl)-1H-pyrrol-3-yl]ethan-1-one] | 123.125 |
| O=C(CCl)c1ccc(C(F)(F)F)cc1 [10-B10, 2-chloro-1-[4-(trifluoromethyl)phenyl]ethan-1-one] | 135.938 |
| C=CC(=O)Nc1ccc(Cl)cc1F [1-I10, N-(4-chloro-2-fluorophenyl)prop-2-enamide] | 113.582 |
| CCCCNC(=O)C(C#N)=Cc1ccc(F)cc1 [9-P13, N-butyl-2-cyano-3-(4-fluorophenyl)prop-2-enamide] | 104.569 |
